# This is one part of the list. The main result of the screen is listed elsewhere. These columns were measured beside it and carry no call. For some assays here: Most of these compounds were active or inconclusive in the main read-out, so they are no random draw. Words in brackets tell the shape of the fitted curve; partial curves, single points and poor fits give uncertain potencies.
# Legend:
# [1] = qHTS drug screen for cell cycle checkpoint inhibitors in PARPi-resistant BRCA-mutant ovarian cancer cell lines. (AID 1963452); conditions: PEO1/OlaR viability, CellTiter-Glo luminescence, 96 h
# How it was run: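 PEO1, PEO4 and PEO1/OlaR ovarian cancer cells, 600 per well, exposed 96 h at 37C to a dilution series. Viability read by CellTiter-Glo luminescence, normalized to DMSO and empty wells; activity summarized as Z-AUC.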
# [2] = qHTS for identification of novel therapeutic agents for treatment of microphthalmiaassociated transcription factor (MiT) renal cell carcinoma (RCC) (AID 1963991); conditions: CellTiter-Glo, 48 h; for z-score: stronger effect = lower value
# How it was run: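 Curves over 11 concentrations were fitted to CellTiter-Glo luminescence, scaled between empty wells (0%) and DMSO (100%) viability. Cells were UOK109, UOK124 and UOK145 TFE3-fusion RCC lines at 500/well, exposed 48 hours at 37 C.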
# [3] = measured here: PEO1 parental viability
# [4] = TFE3-RCC UOK109 viability, measured here: UOK109 Z-AUC
# [5] = TFE3-RCC viability, measured here: UOK124 Z-AUC
# [6] = TFE3-RCC viability, measured here: UOK124 cell viability
# [7] = TFE3-RCC viability, measured here: UOK145 Z-AUC
# [8] = TFE3-RCC viability, measured here: UOK145 cell viability
# Tags give direction and shape of the fitted curve.
Structure (SMILES),"AC50 [1, 3]",AC50 ([1]; measured here: PEO4 viability),"z-score [2, 4]","z-score [2, 5]","AC50 [2, 6]","z-score [2, 7]","AC50 [2, 8]"
CC[C@@]1(O)C[C@H](O[C@H]2C[C@H](N(C)C)[C@H](O[C@H]3C[C@H](O)[C@H](O[C@H]4CCC(=O)[C@H](C)O4)[C@H](C)O3)[C@H](C)O2)c2c(cc3c(c2O)C(=O)c2c(O)cccc2C3=O)[C@@H]1C(=O)OC,"13.8 µM [falling, partial curve, poor fit]","15.5 µM [falling, partial curve, poor fit]",-1.21,-0.742,"0.59 µM [falling, full curve]",-1.21,"0.187 µM [falling, full curve]"
NC(=O)N1CCC(CC(=O)N2CCC([C@H]3c4ncc(Br)cc4CCc4cc(Cl)cc(Br)c43)CC2)CC1,"13.8 µM [falling, partial curve]","19.5 µM [falling, partial curve]",-0.202,-0.234,"23.5 µM [falling, partial curve]",0.303,"20.9 µM [falling, partial curve]"
COc1cccc2c1C(=O)c1c(O)c3c(c(O)c1C2=O)C[C@@](O)(C(=O)CO)C[C@@H]3O[C@H]1C[C@H](N)[C@@H](O)[C@H](C)O1,"0.245 µM [falling, full curve]","0.49 µM [falling, full curve]",-0.77,-0.736,"0.418 µM [falling, full curve]",-0.498,"0.833 µM [falling, full curve]"
CN(C)Cc1ccc(-c2nc3cccc4c3n2CCNC4=O)cc1,"5.49 µM [falling, partial curve, poor fit]","19.5 µM [falling, partial curve, poor fit]",-1.01,1.03,"37.2 µM [falling, single point]",-0.192,"20.9 µM [falling, partial curve]"
CC(C)(C)Cn1c(N)nc2ccc(-c3[nH]c(C(C)(C)C)nc3-c3ccc(F)cc3)nc21,"24.5 µM [falling, single point]","17.4 µM [falling, single point]",-0.812,-0.688,"23.5 µM [falling, partial curve]",-0.219,"23.5 µM [falling, partial curve]"
CN(C)Cc1c(C(=O)NCCOc2ccc(C(=O)NO)cc2)oc2ccccc12,"0.871 µM [falling, full curve]","1.1 µM [falling, full curve]",-0.676,-3.69,"2.96 µM [falling, full curve]",-0.378,"5.9 µM [falling, partial curve]"
O=c1cc(CN2CCOCC2)occ1OCCCCCSc1ccnc2cc(C(F)(F)F)ccc12,"19.5 µM [falling, partial curve]","27.5 µM [falling, single point]",0.366,1.44,"23.5 µM [falling, partial curve, poor fit]",-0.735,"37.2 µM [falling, single point]"
CCc1ccc(OCc2ccccc2C(=O)Nc2ccc3nc(C)cc(N)c3c2)cc1,"4.36 µM [falling, full curve]","4.36 µM [falling, full curve]",-0.862,-0.779,"5.26 µM [falling, full curve]",-0.408,"8.33 µM [falling, full curve]"
Oc1ccc(C2=Cc3ccc(O)cc3OC2)cc1,"12.3 µM [falling, partial curve]","11 µM [falling, partial curve]",0.417,0.205,"9.35 µM [falling, partial curve]",0.572,"16.6 µM [falling, partial curve]"
COc1ccc(F)c(F)c1C(=O)c1cnc(NC2CCN(S(C)(=O)=O)CC2)nc1N,"0.616 µM [falling, full curve]","1.38 µM [falling, full curve]",-1.18,-0.427,"2.35 µM [falling, full curve]",0.117,"2.35 µM [falling, full curve]"
C=CC(=O)Nc1cccc(Sc2nc(Nc3ccc(N4CCN(C)CC4)cc3)ncc2Cl)c1,"8.71 µM [falling, partial curve]","4.9 µM [falling, partial curve]",-1.78,-0.532,"37.2 µM [falling, single point]",-0.258,"37.2 µM [falling, single point]"

# Source: PubChem BioAssay (NCATS)
